# From PMC4336329 (PLoS ONE, 2015)
# In all, about 310,000 compounds went through this assay and about 2,200 (0.71%) showed an effect of 50% or more. Effects have a minus sign here. This is one part of the list.
# Target: human ether-à-go-go-related gene (hERG) potassium channel (human, UniProt Q12809)
# Experiment: primary screen, population patch clamp on CHO cells stably expressing hERG
# Sequence of human ether-à-go-go-related gene (hERG) potassium channel (Q12809 whole entry, looked up): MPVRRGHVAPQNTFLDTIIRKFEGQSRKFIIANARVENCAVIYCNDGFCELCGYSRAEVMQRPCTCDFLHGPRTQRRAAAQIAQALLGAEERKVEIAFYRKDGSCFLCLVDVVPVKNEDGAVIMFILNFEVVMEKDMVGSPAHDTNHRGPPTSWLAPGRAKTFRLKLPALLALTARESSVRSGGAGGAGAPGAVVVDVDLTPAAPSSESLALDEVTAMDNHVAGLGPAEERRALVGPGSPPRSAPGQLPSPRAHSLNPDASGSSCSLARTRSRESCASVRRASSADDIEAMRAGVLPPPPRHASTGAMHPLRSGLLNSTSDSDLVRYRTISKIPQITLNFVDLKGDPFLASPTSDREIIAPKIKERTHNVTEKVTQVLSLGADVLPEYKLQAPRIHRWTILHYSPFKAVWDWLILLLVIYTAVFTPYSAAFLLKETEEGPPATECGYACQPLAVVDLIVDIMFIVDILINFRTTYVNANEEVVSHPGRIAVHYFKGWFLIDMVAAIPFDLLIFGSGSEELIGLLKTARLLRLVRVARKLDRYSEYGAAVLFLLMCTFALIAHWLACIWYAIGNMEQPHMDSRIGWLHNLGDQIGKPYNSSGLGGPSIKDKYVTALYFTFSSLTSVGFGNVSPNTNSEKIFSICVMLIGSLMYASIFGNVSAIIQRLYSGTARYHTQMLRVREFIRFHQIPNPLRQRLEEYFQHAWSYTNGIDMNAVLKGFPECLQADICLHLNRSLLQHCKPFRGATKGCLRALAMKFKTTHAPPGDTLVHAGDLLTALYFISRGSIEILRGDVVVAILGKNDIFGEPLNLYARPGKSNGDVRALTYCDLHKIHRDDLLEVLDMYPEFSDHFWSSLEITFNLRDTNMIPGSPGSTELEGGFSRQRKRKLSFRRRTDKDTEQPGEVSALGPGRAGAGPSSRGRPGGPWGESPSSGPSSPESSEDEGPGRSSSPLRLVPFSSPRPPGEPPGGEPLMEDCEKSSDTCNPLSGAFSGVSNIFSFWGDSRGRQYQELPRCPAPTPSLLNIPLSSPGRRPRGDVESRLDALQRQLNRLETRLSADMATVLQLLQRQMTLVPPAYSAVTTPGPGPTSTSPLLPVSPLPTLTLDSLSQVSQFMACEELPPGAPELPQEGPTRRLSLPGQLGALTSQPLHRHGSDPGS
row,Structure (SMILES),"hERG current change (%, negative = inhibition) at 1uM [%]"
1,Nc1nnc(SCC(=O)NC23CC4CC(CC(C4)C2)C3)s1,6.87
2,O=C(O)CSCCc1ccccn1,6.63
3,O=C(O)CCCC(=O)NCc1ccccn1,17.3
4,COc1ccc(-c2n[nH]c(C)c2-c2cnn(-c3ccccc3)c2)c(O)c1,2.51
5,O=C(Cn1nnc(-c2ccccc2NC(=O)c2ccco2)n1)NC1CCCCC1,9.18
6,CCCn1c(=O)c(C(=O)c2ccccc2)nc2ccccc21,-0.484
7,CC(=O)Nc1ccc(/C=N/Nc2nncc3ccccc23)cc1,10.2
8,Cc1cccc(/C=N/NC(=O)c2cc(C)nc3ccccc23)n1,4.79
9,O=C1OC(=O)C2C3CCC(O3)C12 (stereo not drawn),9.77
10,CN1CCN(C(=O)c2ccccc2-c2nc(-c3ccccc3)no2)CC1,-6.65
11,CCC(C)NC(=O)c1cnn2c(C)c3c(nc12)CCCC3 (stereo not drawn),-3.03
12,CCCCC1CCCC12NC(=O)NC2=O (stereo not drawn),11.4
13,CCC(=O)NC(=S)NNC(=O)c1ccc([N+](=O)[O-])cc1,8.99
14,CNC(=O)NC(=S)NC(=O)c1cccc(Cl)c1,18.7
15,CCCSCCCNC(=O)Cn1nc(CC)n2c(cc3c(OC)cccc32)c1=O,10.6
16,FC(F)(F)c1ccccc1NC(=S)N1CCCC1,15.2
17,CCC(=O)Nc1nnc(-c2ccco2)o1,2.56
18,CN(Cc1ccccc1)C(=O)CCCn1c(=O)[nH]c2cc(Cl)ccc2c1=O,-1.14
19,Cc1c(O)ccc2c3c(c(=O)oc12)CCC(C)C3 (stereo not drawn),13.5
20,Cc1ccc(S(=O)(=O)NCCOc2nc(N(C)C)nc(N(C)C)n2)cc1,8.91
21,COC(=O)Nc1nn(-c2ccc(C)cc2)c(=O)c(C#N)c1C,4.77
22,C[C@H]1OC[C@@H](C[N+](C)(C)C)O1.[I-],19.7
23,CCc1ccc(OCC(=O)Nc2ccc(CN3CCCCC3)cc2)cc1,-0.953

row,Structure (SMILES),"hERG current change (%, negative = inhibition) at 1uM [%]"
1,Cc1ccc2[nH]c(=O)c(CN(Cc3ccco3)S(=O)(=O)c3c(C)ccc4nsnc34)cc2c1,15.4
2,Cc1nc2sc(C(c3ccc(F)cc3)N3CCOCC3)c(O)n2n1 (stereo not drawn),13.3
3,Cl.N=c1ccn(Cc2cccc(F)c2)cc1,16.3
4,Cc1cc(-c2ccccc2)nc2cc(C(=O)NCc3ccco3)nn12,-6.59
5,Cc1cc(NC(=O)Cn2cnc3c(nnn3-c3cccc(F)c3)c2=O)no1,8
6,Cc1ccc(Cl)cc1NC(=O)C1CCCN1S(=O)(=O)c1ccc(-c2ccc(=O)[nH]n2)s1 (stereo not drawn),-14.7
7,O=C(c1cccc(NS(=O)(=O)c2ccc(F)cc2)c1)N1CCN(c2ccccc2)CC1,12.5
8,COc1ccc(C(=O)Nc2ccc(Cl)cc2C(=O)NCCN2CCOCC2)cc1,3.99
9,O=C(CCC(=O)Nc1ccccc1Cl)NNC(=O)Nc1cccc([N+](=O)[O-])c1,-1.45
10,C=CCNC(=S)/C(=C(/[O-])c1ccccc1Br)[n+]1ccccc1,21.4
11,Cc1[nH]n(-c2ccccc2)c(=O)c1N=Nc1ccc(C(=O)O)cc1,7.11
12,CN(c1ccccc1)S(=O)(=O)c1cccc(C(=O)Nc2nccs2)c1,-2.66
13,CC1CCc2onc(C(=O)NCc3ccco3)c2C1 (stereo not drawn),7.7
14,Cc1noc(C)c1COc1cccc(C(=O)Nc2cccnc2)c1,-0.547
15,O=C(COC(=O)Cc1ccccc1)Nc1cc(S(=O)(=O)N2CCOCC2)ccc1N1CCCC1,2.17
16,CC(=O)Nc1ccc(NC(=O)CN(C)CCC#N)cc1,11.3
17,COc1ccc(N=C2SCC(=O)N2CCc2ccc(OC)c(OC)c2)cc1,11.7
18,O=c1oc2cc(O)c(Cl)cc2c2ccccc12,14.2
19,CCN(CC)C(=O)Cn1cc(S(=O)(=O)CC(=O)NCCc2ccccc2)c2ccccc21,9.31
20,Cc1nn(C)cc1S(=O)(=O)Nc1ccc(F)c(F)c1,-1.03
21,Cc1ccc(S(=O)(=O)N/N=C/c2c(F)cccc2Cl)cc1,5.82
22,COc1ccccc1-n1cc(CN2CCN(CC(C)C)C(CCO)C2)cn1 (stereo not drawn),5.53
23,CC(C)(C)OC(=O)NCCc1nnc(SCc2ccc(Cl)cc2Cl)o1,1.7

row,Structure (SMILES),"hERG current change (%, negative = inhibition) at 1uM [%]"
1,COc1ccc(C2(C(=O)Nc3ccc(S(N)(=O)=O)cc3)CCCC2)cc1,6.12
2,CCCCNC(=O)c1c(CSc2ccc(Cl)cc2)noc1C(=O)NCCC,2.12
3,Cc1cc(C)nc(SCc2cc(=O)c(OC(=O)c3ccc(S(=O)(=O)N(C)C)cc3)co2)n1,6.61
4,O=C(O)CCCN1C(=O)c2ccccc2Sc2ncccc21,7.54
5,Cc1ccc(N=Cc2c(O)n(-c3nccs3)c(=O)c3ccccc23)cc1,13.8
6,O=C(CNC(=O)/C=C/c1ccco1)N=Nc1c(O)[nH]c2ccccc12,13.4
7,CC(C(=O)NCc1cccs1)n1cccc1 (stereo not drawn),7.71
8,CCNC(=O)CSc1nc2ccccc2c(=O)n1CCCOC(C)C,1.52
9,CC1CCN(S(=O)(=O)c2ccc(NC(=O)CN3CCCCCC3)cc2)CC1,9.31
10,COCCNC(=O)CCCC(=O)NCCOC,17.4
11,Cc1cc(C)cc(N(C(=O)CCC(=O)Nc2cc(C)on2)C(C(=O)NC2CCCC2)c2ccco2)c1 (stereo not drawn),9.51
12,CC1(CCBr)C(=O)N(c2ccccc2)c2ccccc21 (stereo not drawn),12.6
13,Cc1nnc(N2CCCC(C(=O)Nc3cc(F)ccc3F)C2)c2nn(-c3ccccc3)c(C)c12 (stereo not drawn),28.3
14,CCCCn1c(N)c(N(CC)C(=O)C(c2ccccc2)c2ccccc2)c(=O)[nH]c1=O,7.33
15,CC(C)c1ccc(C2=C(O)c3ccccc3C(=O)C2=O)cc1,-2.48
16,CCOC(=O)C1=C(C)N=C2SCCC(=O)N2C1c1cc(Br)ccc1OC (stereo not drawn),4.22
17,Cc1ccc(C(C(=O)NC2CCCC2)N(C(=O)CCC(=O)Nc2cc(C)on2)c2ccccc2)cc1 (stereo not drawn),-1.94
18,COc1ccc(CNS(=O)(=O)c2cc(CN3C(=O)c4cccnc4C3=O)ccc2OC)cc1,14.8
19,CCN(CC)C(=O)COC(=O)C1CCN(S(=O)(=O)c2ccc3c(c2)OCCO3)CC1,0.008
20,CC(=O)NS(=O)(=O)c1ccc2c(c1)C(=O)c1cc(S(=O)(=O)NC(C)=O)ccc1-2,14.7
21,Cc1nc(C(F)(F)F)ccc1C(=O)Nc1ccc2ccccc2n1,8.39
22,CCOC(=O)C1CCN(Cc2coc3ccc(Cl)cc3c2=O)CC1,-7.34
23,Cc1ccc2[nH]c3c(c2c1)CCCC3NCCO.Cl (stereo not drawn),8.36

row,Structure (SMILES),"hERG current change (%, negative = inhibition) at 1uM [%]"
1,Cc1cccc(CNc2ncnc3ccc(-c4ccc5c(c4)OCCO5)cc23)c1,14.2
2,Oc1ccccc1/C=N/Nc1ccnc(SCc2ccccc2)n1,13.3
3,Cc1ccc(S(=O)(=O)N2CCOC23CCN(S(=O)(=O)c2cccs2)CC3)cc1,-1.58
4,COc1ccc(S(=O)(=O)N2CCC(C(=O)NCCOc3ccccc3F)CC2)cc1OC,10.8
5,COc1ccc(Cl)cc1NC(=S)NNC(=O)c1cccnc1,22.1
6,CCc1cc(C(=O)Cc2cnn(-c3ccccc3)c2)c(O)cc1O,-1.87
7,N#Cc1c(Nc2ccc(F)cc2)sc(C(=O)c2ccccc2)c1N,-0.643
8,CCOC(=O)c1c(C)n(C)c2ccc(OCC(O)CNCCc3ccccc3)cc12 (stereo not drawn),7.51
9,O=S(=O)(c1ccccc1)N(CC(O)CN1CCOCC1)c1ccccc1 (stereo not drawn),9.04
10,Cc1ccsc1CN1CCN(c2ccccn2)CC1,0.592
11,Cc1ccc(S(=O)(=O)N2CCC(C(=O)N[C@H](C(=O)NCC3CCCO3)C(C)C)CC2)cc1 (stereo partly drawn),4.46
12,COC(=O)c1scc(C)c1NC(=O)/C=C/C(=O)O,14
13,CC(NC(=O)c1ccccc1NC(=O)CN1CCN(c2ccccc2O)CC1)c1ccccc1 (stereo not drawn),11.5
14,Cc1cccc(C)c1NC(=O)COc1ccc2c(C)c(Cc3ccccc3)c(=O)oc2c1,5.44
15,O=C(Nc1ccccc1)Nc1c(F)cccc1F,16.1
16,Fc1ccc(NCc2n[nH]c(=S)n2Cc2ccccc2)cc1,7.2
17,CC(=O)Nc1ccc(NC(=O)CSc2nnc(NC(=O)c3ccc(Br)o3)s2)cc1,6.1
18,CC(C)(C)C(=O)Nc1c2c(nn1-c1ccccc1)CSC2,11.7
19,NS(=O)(=O)c1ccc(NC(=O)Cc2cccs2)cc1,13.2
20,O=C(CN1CCN(c2ccc(F)cc2)CC1)c1ccc(O)cc1O,6.76
21,Cc1c(NC(=O)Cn2nc(C(=O)O)c3ccccc3c2=O)c(=O)n(-c2ccccc2)n1C,3.87
